These results are taken from article PMC10196804.

By UniProt entry, the sequences of proteins in these tests, tags left out. Where a name states a change or a piece, a line headed by the entry shows the natural chain unless it says otherwise. Chains listed by the source or under a name are the forms on record and can include a tag or linker. Residues count along the entry.
UniProt Q13772: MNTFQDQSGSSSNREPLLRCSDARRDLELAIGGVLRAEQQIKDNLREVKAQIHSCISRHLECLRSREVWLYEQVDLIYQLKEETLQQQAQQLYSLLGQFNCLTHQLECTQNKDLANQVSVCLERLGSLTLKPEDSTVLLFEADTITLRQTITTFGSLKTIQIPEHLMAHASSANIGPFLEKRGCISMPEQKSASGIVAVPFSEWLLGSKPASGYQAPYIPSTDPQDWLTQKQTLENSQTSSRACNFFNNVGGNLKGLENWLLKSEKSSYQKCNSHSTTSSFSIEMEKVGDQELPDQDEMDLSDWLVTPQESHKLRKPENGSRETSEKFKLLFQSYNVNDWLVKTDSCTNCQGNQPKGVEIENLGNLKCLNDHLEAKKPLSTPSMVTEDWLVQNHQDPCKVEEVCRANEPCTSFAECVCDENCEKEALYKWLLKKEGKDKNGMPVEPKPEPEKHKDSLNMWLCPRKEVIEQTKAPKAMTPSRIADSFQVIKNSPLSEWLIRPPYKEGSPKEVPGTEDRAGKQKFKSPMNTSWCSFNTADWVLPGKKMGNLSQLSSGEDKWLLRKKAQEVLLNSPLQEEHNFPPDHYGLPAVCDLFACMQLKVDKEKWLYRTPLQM
GST-NCOA4 (amino acids 383–522) C410S (Q13772, form named): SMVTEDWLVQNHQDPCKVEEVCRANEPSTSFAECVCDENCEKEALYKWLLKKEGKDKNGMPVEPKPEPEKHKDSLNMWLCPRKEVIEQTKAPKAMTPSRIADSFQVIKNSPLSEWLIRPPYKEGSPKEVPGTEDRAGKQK
GST-NCOA4 (amino acids 383–522) C422S (Q13772, form named): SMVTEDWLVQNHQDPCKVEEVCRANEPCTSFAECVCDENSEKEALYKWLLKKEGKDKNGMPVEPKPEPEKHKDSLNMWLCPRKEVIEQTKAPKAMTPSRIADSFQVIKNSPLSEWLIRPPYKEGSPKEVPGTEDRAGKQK
GST-NCOA4 (amino acids 383–522) C416S (Q13772, form named): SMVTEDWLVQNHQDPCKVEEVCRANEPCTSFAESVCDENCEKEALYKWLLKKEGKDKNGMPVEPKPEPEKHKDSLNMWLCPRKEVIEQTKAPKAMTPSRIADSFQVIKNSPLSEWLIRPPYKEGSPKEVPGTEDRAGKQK
GST-NCOA4 (amino acids 383–522) C404S (Q13772, form named): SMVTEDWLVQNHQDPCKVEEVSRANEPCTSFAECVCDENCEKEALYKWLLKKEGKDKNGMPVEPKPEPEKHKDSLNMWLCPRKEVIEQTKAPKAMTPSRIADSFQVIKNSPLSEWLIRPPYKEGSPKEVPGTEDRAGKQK
myc-HERC2 (amino acids 2292–2923) (O95714, residues 2292-2923): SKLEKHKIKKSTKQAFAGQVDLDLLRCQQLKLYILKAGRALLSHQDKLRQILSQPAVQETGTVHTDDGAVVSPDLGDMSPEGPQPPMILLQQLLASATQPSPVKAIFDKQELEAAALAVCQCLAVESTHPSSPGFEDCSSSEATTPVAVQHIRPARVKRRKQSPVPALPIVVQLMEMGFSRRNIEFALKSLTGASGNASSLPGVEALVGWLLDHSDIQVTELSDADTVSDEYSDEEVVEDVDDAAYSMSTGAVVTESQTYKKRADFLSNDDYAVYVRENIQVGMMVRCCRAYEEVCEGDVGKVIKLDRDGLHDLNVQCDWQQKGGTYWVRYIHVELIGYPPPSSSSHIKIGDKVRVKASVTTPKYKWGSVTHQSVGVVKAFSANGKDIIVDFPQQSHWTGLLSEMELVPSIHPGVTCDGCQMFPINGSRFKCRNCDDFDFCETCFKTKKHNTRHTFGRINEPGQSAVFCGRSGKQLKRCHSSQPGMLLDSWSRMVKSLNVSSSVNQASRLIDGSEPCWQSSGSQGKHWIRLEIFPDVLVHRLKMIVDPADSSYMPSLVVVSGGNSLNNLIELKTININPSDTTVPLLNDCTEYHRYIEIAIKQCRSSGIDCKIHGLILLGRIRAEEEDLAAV
His-HERC2 (amino acids 2540–2700) (O95714, residues 2540-2700): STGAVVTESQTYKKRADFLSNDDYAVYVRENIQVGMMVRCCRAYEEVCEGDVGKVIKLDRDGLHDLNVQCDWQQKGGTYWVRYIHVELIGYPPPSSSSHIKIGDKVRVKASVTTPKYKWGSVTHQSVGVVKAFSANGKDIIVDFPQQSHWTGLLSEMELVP

These are yes or no findings as the source states them, for the method shown. For some assays here: Binding seen in cells or lysates may run through a third protein. Some results given as binding are weak or reduced against the parent protein; the word gives no strength.

In test [1] the target is GST-NCOA4 (amino acids 383–522) C410S (human) (UniProt Q13772). The experiment in a line: condition: 2.8 μg His-HERC2 and 2 μg GST protein in 800 μl; pull-down; GST-tagged proteins (2 μg) and His-HERC2 (amino acids 2540–2700) (2.8 μg) in 20 mM Tris–HCl pH 7.5, 150 mM NaCl, 0.1% Triton X-100, 1 mM DTT; Glutathione Sepharose beads, 1 h at 4 °C; gel stained with CBB; both purified.

In test [2] the target is GST-NCOA4 (amino acids 383–522) C422S (human) (UniProt Q13772). The test is described as above.
The target in test [3] is GST-NCOA4 (amino acids 383–522) C416S (human) (UniProt Q13772). The description is as above.
The target of test [4] is GST-NCOA4 (amino acids 383–522) C404S (human) (UniProt Q13772). The test is described as above.
Test [5] deals with FLAG-hHERC2 (amino acids 2292–2923) (human) (UniProt O95714). The experiment in a line: co-IP; HEK293T cells transfected with control siRNA and FLAG-hHERC2 (amino acids 2292–2923), 25 μg/ml FAC for 3 h; anti-FLAG immunoprecipitation; endogenous NCOA4 detected by immunoblot. (In general: In western blotting, separated proteins are transferred to a membrane and probed.)
Test [6] has the same target. The experiment in a line: co-IP; as a3, but cells transfected with ISCU-specific siRNAs (knockdown of Fe–S cluster biogenesis), 25 μg/ml FAC for 3 h; anti-FLAG immunoprecipitation; endogenous NCOA4 detected by immunoblot.
The target of test [7] is FLAG-NCOA4 C422S (human) (UniProt Q13772). The experiment in a line: co-IP; HEK293T cells co-transfected with FLAG-NCOA4 (WT or mutant) and myc-HERC2 (amino acids 2292–2923), treated with Dfo or FAC; anti-FLAG antibody and Protein A beads on Triton X-100 soluble lysate, 4 °C; myc-HERC2 detected by immunoblot.
Test [8] has as its target FLAG-NCOA4 C404S (human) (UniProt Q13772). The description is as above.
The target in test [9] is FLAG-NCOA4 C416S (human) (UniProt Q13772). The description is as above.
For test [10], the target named is FLAG-NCOA4 C410S (human) (UniProt Q13772). The description is as above.
Test [11] has as its target FLAG-NCOA4 WT (nuclear receptor coactivator 4) (human) (UniProt Q13772). The description is as above.

Take “His-HERC2 (amino acids 2540–2700) (from UniProt O95714 2540-2700) (domain or fragment)”: the binding result in test [1], in [2], in [3] and in [4] was “no binding” throughout.
With “endogenous NCOA4 (from UniProt Q13772 1-614)”, the results for the binding result in test [5] and in [6] were “binds” and “no binding (condition: with siRNA knockdown of ISCU)”, respectively.
As to “myc-HERC2 (amino acids 2292–2923) (from UniProt O95714 2292-2923) (domain or fragment)”, the binding entry was “no binding” in test [7]; “no binding” in test [8]; “no binding” in test [9]; “no binding” in test [10]; “binds” in test [11].
